Assay results: PMC7819943, “Rice protein-binding microarrays: a tool to detect cis-acting elements near promoter regions in rice”
Some of the results follow.

Each sequence was assayed against T1, OsWOX13 (Oryza sativa, UniProt Q5QMM3 1-267) (assay: protein-binding microarray (RPBM); PBS, 2% BSA, 51.3 ng/ul salmon testes DNA, 50 uM zinc acetate, 200 nM TF, 25 C, 1 h; high values mean tight binding). Conditions: protein: recombinant; tags: N-terminal polyhistidine and DsRed monomer fusion (pET32a); label: CyDye5-dUTP incorporated in the synthesized complementary strand; 3' TTTTT single-stranded linker to array surface; dsDNA, one strand shown.
T1 sequence: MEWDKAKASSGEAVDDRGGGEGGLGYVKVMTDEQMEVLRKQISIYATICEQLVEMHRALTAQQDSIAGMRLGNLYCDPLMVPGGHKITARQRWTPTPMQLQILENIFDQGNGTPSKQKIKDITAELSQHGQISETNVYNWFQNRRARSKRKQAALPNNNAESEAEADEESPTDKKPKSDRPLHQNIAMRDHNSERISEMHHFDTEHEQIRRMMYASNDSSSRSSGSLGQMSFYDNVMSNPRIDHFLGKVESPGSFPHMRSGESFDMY
Outline: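 The binding signal is fluorescence intensity per feature, in arbitrary units, read on an Axon 4000B scanner. Polyhistidine- and DsRed-tagged transcription factors (N-terminal fusions) from E. coli BL21-CodonPlus were purified on Ni–NTA and applied at 200 nM for 1 h at 25 °C to a double-stranded, BSA-blocked custom Agilent array in buffer with 50 µM zinc acetate.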
With “CGTGATAGAATCTGCCGACTTGTCTTAGCTAACAGCTTCCCGGAGTCACCTAGTGCAG” the binding signal was 15000 fluorescence intensity (a.u.).
For “ATTACTCATGATGGGCTTCAATTATCTCTTGCTTCAGCAACGGAGTCACCTAGTGCAG”, the binding signal was 16200 fluorescence intensity (a.u.).
For “CCATTCCTGTCAATCTGGGCCAGAGGGCTGAAATTGGGCCCGGAGTCACCTAGTGCAG”, the binding signal was 5060 fluorescence intensity (a.u.).
For “GGTAATGATGAAGAAACATTGTCCGGCATCCTTCAGATTTCGGAGTCACCTAGTGCAG”, the binding signal was 4690 fluorescence intensity (a.u.).
With “CAAATTCACATTGATAGGTATAATGATGTACACTCTTCGTCGGAGTCACCTAGTGCAG” the binding signal was 8210 fluorescence intensity (a.u.).
For “ATGTAAAGATTTTAATTACAACGAATATAACGGTGTAATCCGGAGTCACCTAGTGCAG”, the binding signal was 8090 fluorescence intensity (a.u.).
With “GTACTCACAAATTATTGATTCATGGAAGGAAGGAAGGAGGCGGAGTCACCTAGTGCAG” the binding signal was 5970 fluorescence intensity (a.u.).
In the case of “AGGGATTTTACTAATCATGTCAACTGCTGAACAGTTATAACGGAGTCACCTAGTGCAG”, the binding signal is reported as 9740 fluorescence intensity (a.u.).
For “AGATAGATAGCTATCAGATTGGAATTGGCCACAAAAGCTACGGAGTCACCTAGTGCAG”, the binding signal was 11000 fluorescence intensity (a.u.).
For “TTGCACGCGTAATTAATCAATCAATAATATACCCTCTTCGCGGAGTCACCTAGTGCAG”, the binding signal was 37500 fluorescence intensity (a.u.).
For “CCTAAATTTCAATTTTAGGGATGCATGGGACATGGCTGCACGGAGTCACCTAGTGCAG”, the binding signal was 9800 fluorescence intensity (a.u.).
With “TAAGTCGCAGTTAAAATTTAAATTTTAAAACCTAAACTTCCGGAGTCACCTAGTGCAG” the binding signal was 4740 fluorescence intensity (a.u.).
For “CTTAACAATTGACCATCAGATCCTGTGCACTTGGTAGTTTCGGAGTCACCTAGTGCAG”, the binding signal was 7030 fluorescence intensity (a.u.).
With “ATAATGGGAAATGGAGGGTGGGATTGGGATTAGAAAATGACGGAGTCACCTAGTGCAG” the binding signal was 3290 fluorescence intensity (a.u.).
In the case of “GGGCGAGATTGAAGGAGACGTCGTCTGGCAGGAAGGGTAGCGGAGTCACCTAGTGCAG”, the binding signal is reported as 15600 fluorescence intensity (a.u.).
For “TGGTATGAATGGATAATTTGTTTCTGTCTTATGTGTTGCTCGGAGTCACCTAGTGCAG”, the binding signal was 4830 fluorescence intensity (a.u.).
In the case of “CAAATTTGACAGATGCAATTATAGTACAATCGTAGTGTAACGGAGTCACCTAGTGCAG”, the binding signal is reported as 31000 fluorescence intensity (a.u.).
“TAATGTACATAATTACCATTGCACCTTTATTTTGTATAATCGGAGTCACCTAGTGCAG” was tested, and the binding signal was 4180 fluorescence intensity (a.u.).
With “ACTTGAGATTGACAAAGTCATAACGAATGTCTCGTTATTGCGGAGTCACCTAGTGCAG” the binding signal was 39400 fluorescence intensity (a.u.).
With “CTTTCAAATTAAATTATACGAGGAACTTTCAACCGTGGCTCGGAGTCACCTAGTGCAG” the binding signal was 4880 fluorescence intensity (a.u.).
In the case of “AAACCAATTAGTCAGACAATATATACCAGCACAAAATACACGGAGTCACCTAGTGCAG”, the binding signal is reported as 4390 fluorescence intensity (a.u.).
With “GCGCTGATCAGGGTGGTGATTGCTATTTTGTTCTTGATGGCGGAGTCACCTAGTGCAG” the binding signal was 31900 fluorescence intensity (a.u.).
“GCAAATTGTTTCTTGGATTGGAGCAGGTGGTTGGTGAAGACGGAGTCACCTAGTGCAG” was tested, and the binding signal was 20400 fluorescence intensity (a.u.).
For “ATATATAATCATTGATCTTAATTATTGAGTGTCAGTAGTACGGAGTCACCTAGTGCAG”, the binding signal was 24400 fluorescence intensity (a.u.).
“GCATTTGATAGCAATTTGTGGAAGCTAGAAATGCCTTCACCGGAGTCACCTAGTGCAG” was tested, and the binding signal was 9500 fluorescence intensity (a.u.).
With “AGCCTAATTAATCCGTCATCAGCAAATGTTTATTGTAGCACGGAGTCACCTAGTGCAG” the binding signal was 29700 fluorescence intensity (a.u.).
With “CGTGTATGACTGACAATTAGCATCCGATCGGGACCGTCCACGGAGTCACCTAGTGCAG” the binding signal was 29500 fluorescence intensity (a.u.).
For “TTTGTTGTTAATTTGTCTCTAATTTTCTAGAAATGTAATTCGGAGTCACCTAGTGCAG”, the binding signal was 18000 fluorescence intensity (a.u.).
In the case of “TCTCCTGTTTATTTTCTATGCTTTCCCCTATATATACTTGCGGAGTCACCTAGTGCAG”, the binding signal is reported as 3480 fluorescence intensity (a.u.).
With “CCCGTCAATCCAGCCATGACAACCTGATCCGTCCACGGTGCGGAGTCACCTAGTGCAG” the binding signal was 5330 fluorescence intensity (a.u.).
For “TCTCCAATCATATTACTTGCATGCATCGAGGTGATATAACCGGAGTCACCTAGTGCAG”, the binding signal was 8130 fluorescence intensity (a.u.).
In the case of “TTGATTTGATGAAAGAATATCATATGGATATATTTAAGGACGGAGTCACCTAGTGCAG”, the binding signal is reported as 29700 fluorescence intensity (a.u.).
For “TCCAAAATTCCATTAAATCAGGTGAATGACTAAAGTGTAACGGAGTCACCTAGTGCAG”, the binding signal was 4340 fluorescence intensity (a.u.).
For “CTTGTATGACAAAGATTGATTGCAGCTGACCTGGAATTGGCGGAGTCACCTAGTGCAG”, the binding signal was 43500 fluorescence intensity (a.u.).
For “ATCATCTAATGATTTGGCTTGTCACTTACATTTACAGGTGCGGAGTCACCTAGTGCAG”, the binding signal was 6680 fluorescence intensity (a.u.).
In the case of “AATAATTGAATATATTTTCATAATAAATTTGTCTTGGGTTCGGAGTCACCTAGTGCAG”, the binding signal is reported as 44400 fluorescence intensity (a.u.).
With “ATACAATATAATTGTAATTATATTGTAACTTTTATGCAACCGGAGTCACCTAGTGCAG” the binding signal was 18300 fluorescence intensity (a.u.).
For “ATAAATTTGTACCCTCCAGCTCACACTCAATGTCACCTGGCGGAGTCACCTAGTGCAG”, the binding signal was 13000 fluorescence intensity (a.u.).
For “GTCATTTTCCATCACATCAACCTGTCATACACACACAACTCGGAGTCACCTAGTGCAG”, the binding signal was 4730 fluorescence intensity (a.u.).
In the case of “AGTCTATCGTTGGTGGGTGATTGGGAGAGAAACAGTGCGTCGGAGTCACCTAGTGCAG”, the binding signal is reported as 16300 fluorescence intensity (a.u.).
For “TGTGACAGGGTGTAAAATTTTGCCAGAGGGATCTAAATATCGGAGTCACCTAGTGCAG”, the binding signal was 4220 fluorescence intensity (a.u.).
“CTTACTGCAAATTACATGTCAGTCCATCTTAGGCTGTGTTCGGAGTCACCTAGTGCAG” was tested, and the binding signal was 8610 fluorescence intensity (a.u.).
